Assay results reported in the supplement of paper PMC10126150.
Values marked as one replicate rest on one cluster of the flow cell; about a third of the high ones do not repeat.

tested on: ATP; assay: switch fluorescence ratio, 500 uM ATP over buffer (Cy3 cluster intensity, sum of 5 cycles each) (fold (ratio)); higher = stronger signal-on switching upon ATP binding; sequences stand for … in TCGTCGGCAGCGTCAGATGTGTATAAGAGACAGTTTTTTTTTTTTTTTTTTTTTTTTT…TC; settings: aptamer strand: ATP DNA aptamer (quencher-CACCTGGGGGAGTATTGCGGAGGAAGG + anchor), 100 nM annealed; ATP concentration: 500 uM; one replicate
How it was run: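 The quencher-labelled ATP aptamer, at 100 nM, was annealed to Cy3-labelled switching-strand clusters on a modified Illumina MiSeq flow-cell. The clusters were imaged in selection buffer, then after 15 min with 500 uM ATP at 22 °C, and this buffer/ATP cycle ran five times with NaOH stripping and re-annealing between runs. Per-cluster fluorescence ratios, summed target-cycle over summed buffer-cycle Cy3 intensity, were averaged per switch-domain sequence. Clusters outside 100-1000 RFU were excluded.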
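Note: ATP exposure 15 min at 22 °C before imaging.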

Sequence	switch fluorescence ratio
TACCAACGAT	1.39
TACCAAGACT	1.13
TACCAAGCGG	0.997
TACCACCATG	1.14
TACCATGGCT	0.978
TACCATTACG	1.19
TACCCACTCT	1.35
TACCCCATAT	1.13
TACCCGGTGT	1.97
TACCCGTGAT	1.21
TACCCTCT	1.04
TACCGAACT	1.3
TACCGCAGGG	0.987
TACCGCTGCT	1.08
TACCGGCAGC	1.12
TACCGGCATT	1.01
TACCGGGTTG	1.01
TACCTGGCCC	1.08
TACCTTACAA	1.23
TACCTTGCCA	1.07
TACGAAGACC	1.08
TACGAATAAG	1.03
TACGACGTT	1.08
TACGACTTTC	1.09
TACGAGTCTG	0.998
TACGATCTA	1.01

Sequence	switch fluorescence ratio
TACGCAACA	1.79
TACGCCCTC	1.19
TACGCGGGTC	1
TACGCTCTGG	1.02
TACGGACCGT	1.04
TACGGGTATC	1.09
TACGGTCG	1.01
TACGGTCTGT	0.976
TACGGTGCTA	1.04
TACGGTTGTG	1
TACGTAACGG	1.25
TACGTCGG	1.01
TACGTCTACT	1.2
TACGTGGAAC	1.08
TACGTGGTGC	1.13
TACTACCCTT	1.21
TACTACGGAC	1.62
TACTAGAGG	1.08
TACTAGCGCT	0.988
TACTAGCTCC	0.986
TACTAGGTGC	1.53
TACTAGTTTA	0.957
TACTATAAGT	0.999
TACTCAGA	1.05
TACTCCATTT	1.03
TACTCCGCCG	1.55

Sequence	switch fluorescence ratio
TACTCCTGTA	1.11
TACTCGAGTG	0.98
TACTCGCCCT	1.58
TACTCGTGAT	1.03
TACTCTATTG	1.07
TACTCTCCGT	1.17
TACTCTCGAC	1.17
TACTCTCGGA	0.955
TACTCTGCCG	1.18
TACTCTTCGA	1
TACTGAGAAT	1.06
TACTGATGTA	0.97
TACTGATTAA	1.02
TACTGCGGCG	1.02
TACTGCTCAG	1.01
TACTGGACGC	1.32
TACTGGATAT	1.02
TACTGGGGAA	1.01
TACTGTTCTT	1
TACTTAGGCG	0.997
TACTTAGGGT	1
TACTTCCTT	1.07
TACTTCGGCA	1.08
TACTTGGAA	0.968
TAGAAACATA	0.983
TAGAACCCT	1.05

Sequence	switch fluorescence ratio
TAGAAGCGGA	0.996
TAGAAGGTTT	0.971
TAGAATCCCT	0.994
TAGACACAGT	0.983
TAGACATGTG	0.926
TAGACCAATT	0.97
TAGACCTTTT	1
TAGACGGGG	1.07
TAGACTGCG	0.978
TAGAGATGAG	1.01
TAGAGATTGA	1.02
TAGAGCTCT	0.973
TAGAGGCTAG	0.987
TAGAGTATGT	0.981
TAGAGTGAC	1
TAGAGTGCGG	0.916
TAGAGTTTCC	0.996
TAGATAAAAT	1.02
TAGATAGCTG	0.924
TAGATAGGTG	1.06
TAGATCCG	1.08
TAGATCGGGA	1.01
TAGATCGTGG	1.26
TAGATGGCCA	1.04
TAGATGGTGC	1.03
TAGATGGTTC	1.01

Sequence	switch fluorescence ratio
TAGATTATTG	1.08
TAGATTCCCA	0.994
TAGATTTCGG	0.968
TAGATTTGAC	1.02
TAGCAAAGAG	1.07
TAGCAAATCG	1.08
TAGCACGGTG	1.05
TAGCAGGTGT	2.5
TAGCCAGAAT	0.952
TAGCCAGGTC	1.14
TAGCCGAGGG	0.992
TAGCCGCGTA	1.12
TAGCCGGAGA	1.05
TAGCCGTCCC	1.15
TAGCGAAATG	1.01
TAGCGAGTC	1.15
TAGCGCCCTC	1.12
TAGCGGTCGT	1.01
TAGCGTTCGT	0.961
TAGCGTTGAT	0.974
TAGCTATTAT	1.04
TAGCTCGAA	1.03
TAGCTGGACG	1.03
TAGCTTGCTA	0.965
TAGCTTTGTG	1.02
TAGGAACGCC	0.972

Sequence	switch fluorescence ratio
TAGGAAGATA	0.993
TAGGAATGTA	0.954
TAGGACTGAA	0.978
TAGGACTTTT	1.02
TAGGAGTCGT	0.944
TAGGATCGAC	1.01
TAGGATGTGC	1.03
TAGGCACCTT	1.01
TAGGCCACCG	1.04
TAGGCCCAGT	0.993
TAGGCCCCGA	1
TAGGCCCTT	1.02
TAGGCGCTGT	1
TAGGCTTACG	0.963
TAGGGAACGG	1.07
TAGGGACGAG	0.988
TAGGGACGCT	1.01
TAGGGAGTGG	1.01
TAGGGGAGTC	1.01
TAGGGGGTG	1
TAGGGGTGA	1.02
TAGGGTCGGC	0.975
TAGGGTTAGC	1.03
TAGGTAGCCA	0.964
TAGGTCCTGC	1.02
TAGGTCGGTT	0.955

Sequence	switch fluorescence ratio
TAGGTCTGTT	1.01
TAGGTGAGCT	1.06
TAGGTGCGGA	1.04
TAGGTGGC	1.01
TAGGTGGGAA	0.997
TAGGTTGCGG	0.965
TAGGTTGTG	1.04
TAGGTTTTGC	0.996
TAGTAAATTC	0.97
TAGTAACTCG	0.991
TAGTAAGTTC	0.988
TAGTACCACG	1.01
TAGTAGCTAA	2.15
TAGTAGTTCA	0.925
TAGTCACT	0.998
TAGTCATGGG	0.977
TAGTCCGGG	1
TAGTCCTTGT	0.99
TAGTCCTTT	0.976
TAGTCGCCGC	0.967
TAGTCGGCGG	0.972
TAGTCGTGCG	1.01
TAGTCTACAG	1.04
TAGTGCCCAT	0.987
TAGTGGA	1.03
TAGTGGCCAA	0.988

Sequence	switch fluorescence ratio
TAGTGGTGG	1.03
TAGTGGTTGG	0.968
TAGTGTCCTA	0.939
TAGTGTCGCG	1.01
TAGTGTGATA	0.978
TAGTGTGTAG	0.977
TAGTGTTTAA	0.993
TAGTTAGGGC	0.994
TAGTTATAGT	0.967
TAGTTCAAGT	1.01
TAGTTCCGGG	1.03
TAGTTCGTAG	1.04
TAGTTCTTCT	1.02
TAGTTGACCT	1.23
TAGTTGGCTG	1.07
TAGTTGGTTA	0.981
TAGTTGTACG	1.14
TAGTTTATG	1.02
TAGTTTCTTA	1.04
